# Reference: the supplement of paper PMC8728848
# The other results are listed elsewhere or left out.
# B1: MGL2 (Mus musculus), Q8JZN1 (protein)
# chain: MTMRYENFQNLEREEKNQEMRNGDKKGGMESPKFALIPSQSFLWRILSWTHLLLFSLGLSLLLLVVISVIGSQNSQLRRDLGTLRAILDNTTSKIKAEFQSLDSRADNFEKGISSLKVDVEDHRQELQAGRDLSQKVTSLESTLEKREQALKTDLSDLTDHVQQLETDLKALTCQLANLKNNGSEVACCPLHWTEHEGSCYWFSESEKSWPEADKYCRLENSHLVVVNSLEEQNFLQNRLANVLSWMGLTDQNGPWRWVDGTDFDKGFKNWRPLQPDNWHGHMLGGGEDCAHFSYDGRWNDDVCQRHYHWICETELGKASSAHSPQLIASVP
# Legend:
# Assay in all cases: glycan array binding signal (z-score within array); higher = stronger binding
# Details in all cases: glycan notation: IUPAC condensed, linker removed
# [1] = biological target: Neu5Ac(a2-6)GlcNAc(b1-4)GlcNAc(b1-4)GlcNAc
# Method in brief: (§1)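 Columns mapping to the same glycan were averaged after glycan names were converted to IUPAC-condensed notation. The data come from 3228 arrays in the Consortium for Functional Glycomics database, limited to those with an available protein sequence. Binding is reported as a within-array Z-score averaged across arrays of one protein sequence and across linkers.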
# [2] = biological target: Neu5Ac(a2-8)Neu5Ac
# Method in brief: as §1
# [3] = biological target: Neu5Ac(a2-8)Neu5Ac(a2-3)Gal(b1-3)GalNAc(b1-4)[Neu5Ac(a2-3)]Gal(b1-4)Glc
# Method in brief: as §1
# [4] = biological target: Neu5Ac(a2-8)Neu5Ac(a2-3)Gal(b1-3)GalNAc(b1-4)[Neu5Ac(a2-8)Neu5Ac(a2-3)]Gal(b1-4)Glc
# Method in brief: as §1
# [5] = biological target: Neu5Ac(a2-8)Neu5Ac(a2-3)Gal(b1-4)Glc
# Method in brief: as §1
# [6] = biological target: Neu5Ac(a2-8)Neu5Ac(a2-3)Gal(b1-4)GlcNAc
# Method in brief: as §1
# [7] = biological target: Neu5Ac(a2-8)Neu5Ac(a2-3)[Gal(b1-3)GalNAc(b1-4)]Gal(b1-4)Glc
# Method in brief: as §1
# [8] = biological target: Neu5Ac(a2-8)Neu5Ac(a2-3)[GalNAc(b1-4)]Gal(b1-4)Glc
# Method in brief: as §1
# [9] = biological target: Neu5Ac(a2-8)Neu5Ac(a2-8)Neu5Ac
# Method in brief: as §1
# [10] = biological target: Neu5Ac(a2-8)Neu5Ac(a2-8)Neu5Ac(a2-3)Gal(b1-4)Glc
# Method in brief: as §1
# [11] = biological target: Neu5Ac(a2-8)Neu5Ac(a2-8)Neu5Ac(a2-3)[Gal(b1-3)GalNAc(b1-4)]Gal(b1-4)Glc
# Method in brief: as §1
# [12] = biological target: Neu5Ac(a2-8)Neu5Ac(a2-8)Neu5Ac(a2-3)[GalNAc(b1-4)]Gal(b1-4)Glc
# Method in brief: as §1
# [13] = biological target: Neu5Ac(a2-8)Neu5Ac(a2-8)Neu5Ac(a2-8)Neu5Ac(a2-3)[GalNAc(b1-4)]Gal(b1-4)Glc
# Method in brief: as §1
# [14] = biological target: Neu5Ac(a2-8)Neu5Gc(a2-3)Gal(b1-4)GlcNAc
# Method in brief: as §1
# [15] = biological target: Neu5Ac(b2-6)Gal(b1-4)GlcNAc
# Method in brief: as §1
# [16] = biological target: Neu5Ac(b2-6)GalNAc
# Method in brief: as §1
# [17] = biological target: Neu5Ac9Ac(a2-3)Gal(b1-3)GlcNAc
# Method in brief: as §1
# [18] = biological target: Neu5Ac9Ac(a2-3)Gal(b1-4)GlcNAc
# Method in brief: as §1
# [19] = biological target: Neu5Ac9Ac(a2-6)Gal(b1-4)GlcNAc
# Method in brief: as §1
# [20] = biological target: Neu5Gc(a2-3)Gal(b1-3)GlcNAc
# Method in brief: as §1
# [21] = biological target: Neu5Gc(a2-3)Gal(b1-3)[Fuc(a1-4)]GlcNAc
# Method in brief: as §1
# [22] = biological target: Neu5Gc(a2-3)Gal(b1-4)Glc
# Method in brief: as §1
# [23] = biological target: Neu5Gc(a2-3)Gal(b1-4)GlcNAc
# Method in brief: as §1
# [24] = biological target: Neu5Gc(a2-3)Gal(b1-4)GlcNAc(b1-3)Gal(b1-4)GlcNAc(b1-2)Man(a1-3)[Neu5Gc(a2-3)Gal(b1-4)GlcNAc(b1-3)Gal(b1-4)GlcNAc(b1-2)Man(a1-6)]Man(b1-4)GlcNAc(b1-4)GlcNAc
# Method in brief: as §1
# [25] = biological target: Neu5Gc(a2-3)Gal(b1-4)[Fuc(a1-3)]GlcNAc
# Method in brief: as §1
# [26] = biological target: Neu5Gc(a2-6)Gal(b1-4)GlcNAc
# Method in brief: as §1
# [27] = biological target: Neu5Gc(a2-6)GalNAc
# Method in brief: as §1
# [28] = biological target: Neu5Gc(a2-8)Neu5Ac(a2-3)Gal(b1-4)GlcNAc
# Method in brief: as §1
# [29] = biological target: Neu5Gc(a2-8)Neu5Gc(a2-3)Gal(b1-4)GlcNAc
# Method in brief: as §1
# [30] = biological target: Neu5Gc(a2-8)Neu5Gc(a2-3)Gal(b1-4)GlcNAc(b1-3)Gal(b1-4)GlcNAc
# Method in brief: as §1
# [31] = biological target: Neu5Gc(a2-8)Neu5Gc(a2-6)Gal(b1-4)GlcNAc
# Method in brief: as §1
# [32] = biological target: Neu5Gc(b2-6)Gal(b1-4)GlcNAc
# Method in brief: as §1
binder,measurement,setting,value
B1,glycan array binding signal (z-score),[1],-0.258
same,glycan array binding signal (z-score),[2],-0.205
same,glycan array binding signal (z-score),[3],-0.15
same,glycan array binding signal (z-score),[4],0.503
same,glycan array binding signal (z-score),[5],-0.199
same,glycan array binding signal (z-score),[6],-0.225
same,glycan array binding signal (z-score),[7],-0.127
same,glycan array binding signal (z-score),[8],-0.167
same,glycan array binding signal (z-score),[9],-0.239
same,glycan array binding signal (z-score),[10],-0.092
same,glycan array binding signal (z-score),[11],-0.194
same,glycan array binding signal (z-score),[12],-0.084
same,glycan array binding signal (z-score),[13],-0.206
same,glycan array binding signal (z-score),[14],-0.209
same,glycan array binding signal (z-score),[15],-0.275
same,glycan array binding signal (z-score),[16],-0.176
same,glycan array binding signal (z-score),[17],-0.184
same,glycan array binding signal (z-score),[18],-0.17
same,glycan array binding signal (z-score),[19],-0.226
same,glycan array binding signal (z-score),[20],-0.23
same,glycan array binding signal (z-score),[21],-0.162
same,glycan array binding signal (z-score),[22],-0.165
same,glycan array binding signal (z-score),[23],-0.247
same,glycan array binding signal (z-score),[24],0.063
same,glycan array binding signal (z-score),[25],0.086
same,glycan array binding signal (z-score),[26],-0.199
same,glycan array binding signal (z-score),[27],0.232
same,glycan array binding signal (z-score),[28],-0.127
same,glycan array binding signal (z-score),[29],-0.142
same,glycan array binding signal (z-score),[30],-0.118
same,glycan array binding signal (z-score),[31],-0.179
same,glycan array binding signal (z-score),[32],-0.174
